# According to PubChem BioAssay AID463173 (ICCB-Longwood Screening Facility, Harvard Medical School, 2010):
# In all, about 52,000 compounds went through this assay and about 1,700 (3.3%) were called active. No stated cut-off is given here; in the data, active means survival mostly below about 52% (no sharp cut-off); inactive means mostly above about 56%. The list shows a part of the results.
# Tested on: Wild type
# Test: S. aureus survival, RN4220 and DeltatarO strains – OD600, teichoic acid synthesis inhibitors, primary screen (AID 463173)
# Conditions: S. aureus RN4220 wild type/DeltatarO growth, OD600, 18 h, hits give low values, screened at 18.75 µg/mL (by protocol)
row,SMILES,survival
1,CCc1ccc(NC(=O)N(Cc2c[nH]c3ccccc23)C2CCCCCC2)cc1,inactive: 127%
2,O=C(NCc1ccccc1)C(=O)NCC(c1ccco1)S(=O)(=O)c1ccccc1 (centres undefined),inactive: 67%
3,Cc1cc2nn(-c3ccc(F)cc3)nc2cc1NC(=O)c1cc(Cl)ccc1Cl,inactive: 127%
4,CCCCN1C(=O)C(O)(c2c(C)[nH]c3ccccc23)c2cc(Br)ccc21 (centres undefined),inactive: 36%
5,CCCN(CCC)c1nn2c(=O)c(C(=O)NCc3cccc(OC)c3)cnc2s1,inactive: 72%
6,Cc1cc(NC(=O)C2C3C(=O)N(c4ccccc4Cl)C(C(=O)NC(C)(C)C)C34C=CC2(C)O4)no1 (centres undefined),inactive: 115%
7,CCN(CC)CCCN1C(=O)C2C3C=CC(C3)C2C1=O (centres undefined),inactive: 105%
8,COc1ccc(Cl)cc1NC(=O)CSc1nnc(C)n2c1cc1occc12,inactive: 65%
9,CCOc1ccc(CCNC(=O)CCc2c(C)nc3c4c(C)cc(C)nc4nn3c2C)cc1,inactive: 87%
10,COc1ccccc1C1C=C(c2ccc(F)cc2)Nc2nc(-c3ccc(Cl)cc3)nn21 (centres undefined),inactive: 84%
11,CCN(CC)S(=O)(=O)c1ccc2c(c1)N(CC(=O)NCCCN1CCN(c3ccccc3F)CC1)C(=O)CO2,inactive: 77%
12,Cc1ccc2[nH]c(=O)c3cc(C(=O)N4CCN(c5ccccc5)CC4)sc3c2c1,inactive: 71%
13,COc1cccc(NC(=O)NCc2ccc3c(c2)CCN3C(=O)c2ccccc2)c1,inactive: 64%
14,Cc1cccc(C(=O)Nc2sc3c(c2C(=O)NCc2ccco2)CCCC3)c1,inactive: 100%
15,O=C(/C=C/c1ccccc1)Nc1ccccc1N1CCN(c2ccccc2)CC1,inactive: 106%
16,CC(C)c1ccc(C2N3CC4(C)CN2CC(c2ccccc2)(C3)C4=O)cc1 (centres undefined),inactive: 97%
17,CCc1ccc(NC(=O)c2cc(C(C)=O)n3ccccc23)cc1,inactive: 51%
18,CCOC(=O)c1scc(-c2ccccc2)c1S(=O)(=O)Nc1ccccc1F,inactive: 129%
19,Clc1cccc(N2CCN(c3ncnc4c3nc3n4CCCCC3)CC2)c1,active: 3%
20,CCc1nn(-c2ccccc2)c2nc(-c3ccccc3OC)c3cc(OC)c(OC)cc3c12,inactive: 113%
21,CCCc1nn2c(=O)cc(COC(=O)c3cccc(NC(=O)COc4ccc(F)cc4)c3)nc2s1,inactive: 80%
22,O=C(Cn1c(=O)oc2cc(S(=O)(=O)N3CCCCC3)ccc21)Nc1cccc(Cl)c1,inactive: 98%
23,CCCCN1C(=O)c2[nH]nc(-c3ccccc3O)c2C1c1cccc(OCc2ccccc2)c1 (centres undefined),inactive: 52%

row,SMILES,survival
1,Cc1nc(-c2ccc(Cl)cc2)sc1CCNC(=O)C(=O)Nc1ccc(F)cc1F,inactive: 102%
2,Cc1cc(C)c(Cn2c3ccccc3c3cnn(CC(=O)NC4CCC(C)CC4)c(=O)c32)c(C)c1 (centres undefined),inactive: 69%
3,O=C(O)c1cc(NC2(c3ccccc3)C(=O)c3ccccc3C2=O)ccc1Cl,inactive: 68%
4,Cc1ccccc1NC(=O)c1ccc(F)c(S(=O)(=O)N(C)Cc2ccccc2)c1,inactive: 66%
5,Cc1ccc(Cn2c(C(=O)O)c(CNCc3ccccc3Cl)c3ccc(C)cc32)cc1,inactive: 83%
6,CCc1ccc(NC(=O)CN2CCN(Cc3ccccc3)S2(=O)=O)cc1,inactive: 54%
7,CCOC(=O)C1CCN(c2ncnc3c2c(-c2ccccc2)cn3-c2cccc(C)c2)CC1,inactive: 67%
8,Cc1oc2c(c(C)cc3oc(=O)c(CC(=O)NCCc4ccccc4F)c(C)c32)c1C,inactive: 88%
9,CCOCc1cn(CC(=O)c2ccc(OC(C)=O)c(OC(C)=O)c2)c(C)nc1=N,inactive: 108%
10,Cc1cccc(NC(=O)CCCn2c(C)c3cnn(-c4ccccc4)c(=O)c3c2C)c1C,inactive: 77%
11,Cc1ccccc1-n1c(SCC(=O)Nc2ccc(Cl)cc2F)nnc1-c1cc2occc2n1C,inactive: 92%
12,COc1cccc(NC(=O)C(C#N)Cc2cccs2)c1 (centres undefined),inactive: 98%
13,Cc1ccc(C)n1-c1nnc(N2CCCC(C(=O)NCc3ccc(Cl)cc3)C2)s1 (centres undefined),inactive: 85%
14,Cc1ccc(OCC(=O)Nc2ccc(S(=O)(=O)Nc3cc(C)nc(C)n3)cc2)c(Br)c1,inactive: 108%
15,Cc1ccc(CN2CCc3nc(N4CCN(c5ncccn5)CC4)ncc3C2)cc1,inactive: 128%
16,COc1ccc(C2=CC(c3ccc(F)cc3)n3ncc(C(=O)Nc4ccc(C)cc4)c3N2)cc1 (centres undefined),inactive: 124%
17,Cc1ccc(-c2nc3cc(C(C)C)ccc3o2)cc1NC(=O)c1cc2ccccc2o1,active: 11%
18,CCc1ccc(CNC(=O)c2sc3ncccc3c2-n2c(C)ccc2C)cc1,active: -3%
19,CCOc1ccccc1CNS(=O)(=O)c1ccc2c(c1)CCCN2C(C)=O,inactive: 88%
20,O=C(Cn1ccn(-c2ccc(F)c(F)c2)c(=O)c1=O)Nc1ccccc1F,inactive: 83%
21,Cc1ccc(C(=O)N2CCC(C(=O)O)CC2)cc1,inactive: 95%
22,Cc1ccc(N(CC(=O)NCCc2ccc(Cl)cc2)S(=O)(=O)N(C)C)cc1,inactive: 119%
23,COc1cccc(NC(=O)CSc2nc3c(oc4ccccc43)c(=O)n2Cc2ccco2)c1,inactive: 70%

row,SMILES,survival
1,CCCNC(=O)c1c(O)c2ccccc2n(C)c1=O,inactive: 95%
2,O=C(CCSc1nc(-c2ccco2)cc(C(F)(F)F)n1)Nc1cccc(O)c1,inactive: 124%
3,O=C(Nc1ccc2oc(-c3cccnc3)nc2c1)c1cccc(Br)c1,inactive: 75%
4,COc1cc(-c2noc(CN3CCN(c4ccccc4)CC3)n2)cc(OC)c1OC,inactive: 91%
5,CC(C)CCNC(=O)CCCN1C(=O)c2ccccc2Sc2ncccc21,inactive: 85%
6,CCc1ccc(C2c3c(-c4ccccc4O)n[nH]c3C(=O)N2Cc2ccncc2)cc1 (centres undefined),inactive: 84%
7,COc1cc(OC)cc(C(=O)Oc2c(Sc3ccccc3)c(C)nn2C(C)(C)C)c1,inactive: 50%
8,Cc1cn2c(=O)cc(COC(=O)c3cccc(NC(=O)COc4ccccc4Cl)c3)nc2s1,inactive: 124%
9,CCOC(=O)c1ccccc1NC(=O)N1CCc2c(sc(C)c2CC)C1c1ccccc1 (centres undefined),inactive: 130%
10,COc1ccccc1-c1nc2c(c(SCc3cccc(Cl)c3)n1)Cc1c(CO)cnc(C)c1O2,inactive: 93%
11,O=C(O)CNCc1nc2ccccc2[nH]1,inactive: 94%
12,N[n+]1cnn(CC(=O)c2ccc(Cl)cc2)c1,inactive: 107%
13,Cc1cccc(NC(=O)C(=O)NCC(c2ccc3c(c2)OCO3)N2CCOCC2)c1C (centres undefined),inactive: 79%
14,Cc1cc(C)c(NC(=O)C2CCN(c3nc4ccccc4[nH]3)CC2)c(C)c1,inactive: 81%
15,O=C(Nc1cccs1)Nc1cc(C(F)(F)F)ccc1Cl,inactive: 26%
16,Cc1ccc(Cl)cc1N1CCN(C(=O)c2cnc(N3CCOCC3)c3ccccc23)CC1,inactive: 126%
17,COC(=O)c1cc2c(ccn2C)n1CC(=O)N(C1CCCCC1)C1CCCCC1,inactive: 113%
18,CN1CCN(C(CNC(=O)c2cccc(F)c2)c2ccc3c(c2)OCO3)CC1 (centres undefined),inactive: 77%
19,CCOc1ccc(-n2c(Cc3ccccc3)nnc2SCc2nc(-c3ccccc3OC)no2)cc1,inactive: 66%
20,CC(C)c1cc(C(F)(F)F)n2nc(C(=O)O)cc2n1,inactive: 108%
21,Cc1ccc2c(c1)-c1nc(-c3ccc(Cl)cc3)cc(-c3coc4ccccc4c3=O)c1CO2,inactive: 139%
22,O=C(Nc1ccc2oc(-c3ccccc3F)nc2c1)c1ccccc1Cl,inactive: 72%
23,Cc1cccc(CSc2ncc(CO)n2Cc2ccc(F)cc2)c1,inactive: 134%

row,SMILES,survival
1,CCCSc1ncc(Cl)c(C(=O)Nc2ccc(S(=O)(=O)Nc3ncccn3)cc2)n1,inactive: 90%
2,COc1ccc(NC(=O)CSc2ncc3c(n2)-c2cc(Cl)ccc2N(Cc2ccccc2F)S3(=O)=O)cc1,inactive: 65%
3,CCn1nnnc1SCC(=O)c1ccc(OC)cc1OC,inactive: 105%
4,COC(=O)Nc1ccc(S(=O)(=O)N2CCCCC2)cc1,inactive: 99%
5,CC1CC(C(F)(F)F)n2ncc(C(=O)O)c2N1 (centres undefined),inactive: 108%
6,Cc1cc(C)c2c(=O)cc(C(=O)Nc3sc4c(c3C(=O)NCc3ccccc3)CCCC4)oc2c1,inactive: 82%
7,CC(=O)Nc1ccc(S(=O)(=O)c2cc(O)ccc2O)cc1,inactive: 103%
8,Fc1ccc(-n2ncc3c(NCCCN4CCOCC4)ncnc32)cc1,inactive: 57%
9,O=C(Nc1ccc2nc(SCC(=O)N3CCCc4ccccc43)sc2c1)c1cccc(F)c1,inactive: 80%
10,COC(=O)c1cc(S(=O)(=O)NCC2CCN(Cc3ccc(F)cc3)CC2)cn1C,inactive: 120%
11,Cn1ccnc1SCC(=O)n1c2c(c3ccccc31)CCCC2,inactive: 104%
12,COc1cc(-c2nnc(SCCOc3ccc(Cl)cc3C)o2)cc(OC)c1OC,inactive: 112%
13,CCOC(=O)c1c(NC(=O)CSc2cn(CCNC(=O)c3ccccc3F)c3ccccc23)sc2c1CCC2,inactive: 76%
14,COc1cccc(CNC(=O)c2ccc(CSc3nc4ccncc4n3Cc3cccc(C)c3)cc2)c1,inactive: 82%
15,Cc1ccc2c(c1)N(CCC(=O)NCc1ccc(F)cc1)C(=O)CO2,inactive: 87%
16,COc1cc(NC(=O)CCc2c(C)nn(-c3ccc4nncn4n3)c2C)cc(OC)c1OC,inactive: 84%
17,COc1ccc2ncc(C(=O)O)c(NCCO)c2c1,inactive: 100%
18,Cc1ccc(Cl)cc1N1CCN(S(=O)(=O)c2ccc3[nH]c4c(c3c2)CCCCC4)CC1,inactive: 83%
19,CCOCCc1nn2c(=O)cc(COC(=O)CNC(=O)c3ccc(C(C)(C)C)cc3)nc2s1,inactive: 126%
20,COc1cccc(N2CCN(C(=O)c3ccc4c(=O)n(CCc5ccccc5)c(=O)[nH]c4c3)CC2)c1,inactive: 68%
